# According to PMC4336329 (PLoS ONE, 2015):
# The whole screen tested about 310,000 compounds, of which about 2,200 (0.71%) showed an effect of 50% or more. The effect is printed as a negative number. This is one part of the list.
# Target: human ether-à-go-go-related gene (hERG) potassium channel (human, UniProt Q12809)
# Assay: primary screen, population patch clamp on CHO cells stably expressing hERG
# Sequence of human ether-à-go-go-related gene (hERG) potassium channel (Q12809 whole entry, looked up): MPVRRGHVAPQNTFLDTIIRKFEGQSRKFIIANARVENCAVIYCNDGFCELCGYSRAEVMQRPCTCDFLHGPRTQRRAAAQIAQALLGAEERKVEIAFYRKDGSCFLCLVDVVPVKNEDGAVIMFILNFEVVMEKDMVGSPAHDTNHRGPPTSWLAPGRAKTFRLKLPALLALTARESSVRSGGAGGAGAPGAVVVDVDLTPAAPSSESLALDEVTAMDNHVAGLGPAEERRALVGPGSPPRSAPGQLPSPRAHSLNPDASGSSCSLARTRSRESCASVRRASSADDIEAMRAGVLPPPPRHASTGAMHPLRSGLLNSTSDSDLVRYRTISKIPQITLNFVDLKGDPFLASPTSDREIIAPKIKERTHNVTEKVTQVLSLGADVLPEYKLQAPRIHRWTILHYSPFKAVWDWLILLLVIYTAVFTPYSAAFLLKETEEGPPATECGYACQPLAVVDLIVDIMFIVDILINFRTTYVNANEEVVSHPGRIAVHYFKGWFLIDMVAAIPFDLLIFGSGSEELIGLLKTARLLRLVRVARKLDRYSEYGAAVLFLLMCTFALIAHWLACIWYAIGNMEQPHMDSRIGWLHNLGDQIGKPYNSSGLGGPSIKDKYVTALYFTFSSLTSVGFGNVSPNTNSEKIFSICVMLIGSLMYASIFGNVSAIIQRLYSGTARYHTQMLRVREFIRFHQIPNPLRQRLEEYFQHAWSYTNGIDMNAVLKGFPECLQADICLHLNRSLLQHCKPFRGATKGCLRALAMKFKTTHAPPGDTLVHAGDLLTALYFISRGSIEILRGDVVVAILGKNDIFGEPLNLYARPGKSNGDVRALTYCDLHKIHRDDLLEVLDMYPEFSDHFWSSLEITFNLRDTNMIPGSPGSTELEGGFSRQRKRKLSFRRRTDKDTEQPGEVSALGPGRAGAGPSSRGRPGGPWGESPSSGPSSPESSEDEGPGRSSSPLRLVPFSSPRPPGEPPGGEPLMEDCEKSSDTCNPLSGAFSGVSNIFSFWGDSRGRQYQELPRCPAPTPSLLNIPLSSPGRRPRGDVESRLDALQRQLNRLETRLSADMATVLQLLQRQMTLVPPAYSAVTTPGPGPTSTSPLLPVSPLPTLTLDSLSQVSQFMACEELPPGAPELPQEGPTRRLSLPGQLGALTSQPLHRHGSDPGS
row,SMILES,"hERG current change (%, negative = inhibition) at 1uM"
1,O=C(NCCC1=CCCCC1)c1ccc(Cl)c([N+](=O)[O-])c1,1.16%
2,CC(C)CN(C(=O)COC(=O)c1nc(Cl)ccc1Cl)c1c(N)n(Cc2ccccc2)c(=O)[nH]c1=O,18.5%
3,CC1=CC(c2ccccc2)=Nc2ccc(C)cc2N1,9.69%
4,COc1cccc(C(=O)C2CCCN(Cc3ccc4nonc4c3)C2)c1 (centres unmarked),-14.6%
5,COc1cc(C#Cc2ccc3cc(C(C)(C)O)oc(=O)c3c2)cc(OC)c1,19.3%
6,CCOc1ccc(NC2=C(Cl)C(=O)N(Cc3ccccc3)C2=O)cc1,-1.77%
7,O=C(NC(CSCc1ccccc1)C(=O)N/N=C/c1ccc(O)cc1O)c1ccc([N+](=O)[O-])cc1 (centres unmarked),-7%
8,Cc1c(OC(C)C(=O)NCC2CCC(C(=O)O)CC2)ccc2c1oc(=O)c1ccccc12 (centres unmarked),14.5%
9,CCOc1cc(C(=S)N2CCOCC2)ccc1OC(=O)c1cccc(C)c1,1.58%
10,CCN1C/C(=C/c2ccc(OC)c(O)c2)C(=O)/C(=C/c2ccc(OC)c(O)c2)C1,6.85%
11,Nc1nc(F)cc(N2CCCCCC2)n1,12.8%
12,COc1ccc(C(=O)Nc2oc(-c3ccccc3)c(-c3ccccc3)c2C#N)cc1,9.36%
13,O=c1[nH]c(Nc2ccc(F)cc2)cc2ccccc12,6.15%
14,CCn1nc(C)cc1C(=O)N1CCCC(C(=O)c2cccc(OC)c2)C1 (centres unmarked),11.6%
15,COc1cc(S(=O)(=O)Nc2ccccc2C)ccc1Cl,6.03%
16,Cc1ccc(-c2cc(C(=O)Nc3ccc(S(=O)(=O)Nc4cc(C)on4)cc3)c3ccccc3n2)c(C)c1,-3.02%
17,Cc1ccc(S(=O)(=O)N2C(=O)C(c3ccccc3)SC2=Nc2ccccc2)cc1 (centres unmarked),12.3%
18,CCCNC(=O)COC(=O)c1cc(SC)ccc1Cl,0.961%
19,Cc1cccc(-n2c(SCC(=O)Nc3nonc3C)nnc2-c2ccoc2C)c1,-81.9%
20,CC1(C)CC(=O)C2=C(C1)N(c1ccccc1)C(=O)C2(O)C(F)(F)F (centres unmarked),1.06%
21,Cc1cccc(C)c1NS(=O)(=O)c1c(C)[nH]c(=O)[nH]c1=O,-0.229%
22,CCOC(=O)Cc1csc(NC(=O)CSc2nnc(-c3cccnc3)n2Cc2ccco2)n1,0.296%
23,CCCCCc1c(O)nc(SCCN(C)C)[nH]c1=O.Cl,8.28%
